Results from PubChem BioAssay AID1508642 (National Center for Advancing Translational Sciences (NCATS), 2021).
The whole screen tested about 43,000 compounds, of which about 200 (0.47%) were called active. Not shown: some 12% with an inconclusive outcome. The call rests on the fitted dose curve; in most records, active means well fitted cell-killing curve with a large enough effect; inconclusive means small, poorly fitted or top-dose-only effect, or effect the other way; inactive means flat fitted curve, though single readings scatter. The list shows a part of the results.

Experiment: Cell viability qHTS assay in S16 Pmp22-F2sN cells; further: nearly all actives have a fitted effect of over 65% in size
Conditions: S16 Pmp22-F2sN Schwann cells viability, CellTiter-Glo, 24 h; series mostly up to 57.5 µM; activity change, negative = cytotoxicity: at the top concentration
Summary of the method: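 Viability was measured by CellTiter-Glo luminescence (15 min, room temperature). This followed 24 h at 37 °C of compound exposure (23 nL pin transfer) in S16 Pmp22-F2sN Schwann cells, 500-1,000 per well.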
On the % scale 0 is the no-effect control and ±100 the full control effect.

| Structure (SMILES) | activity change, negative = cytotoxicity |
| --- | --- |
| O=C1Nc2ccc(S(=O)(=O)Nc3ccccc3O)c3cccc1c23 | inactive: 2.04% |
| CCOc1ccccc1Nc1cc(-c2ccccc2)nc(C)n1 | inactive: -3.21% |
| COc1ccc(NC(=O)CSc2nnc(-c3cccs3)o2)cc1 | inactive: 0.703% |
| COc1cc(NC(=O)Cn2ncc3c([nH]c4ccc(C)cc43)c2=O)cc(OC)c1OC | inactive: -0.255% |
| COc1cc(C(=O)Nc2ccc3oc(-c4ccccc4)nc3c2)cc(OC)c1OC | inactive: -23.4% |
| CN(C(=O)CSc1nc2c(c(=O)[nH]1)CCCC2)c1ccccc1 | inactive: -4.12% |
| CCOc1ccccc1NC(=O)C1CCN(S(=O)(=O)c2ccccc2)CC1 | inactive: -3.86% |
| COc1ccc(-c2nc(SCC(=O)Nc3ccc4c(c3)OCO4)c(-c3ccc(OC)cc3)[nH]2)cc1 | inactive: 3.1% |
| CCOc1ccc(S(=O)(=O)N2CCN(c3c(C)cccc3C)CC2)c2ccccc12 | inactive: -1.51% |
| CC(NC(=O)Nc1ccccc1C(F)(F)F)c1c(-n2cccc2)sc2c1CCCC2 (stereo not drawn) | inactive: -17.6% |
| COc1ccccc1CNC(=O)Cn1ncc2c3ccccc3n(Cc3ccccc3C)c2c1=O | inactive: 9.57% |
| CCOC(=O)c1ccc(NS(=O)(=O)c2ccc(Br)s2)cc1 | inactive: 0.349% |
| COc1ccccc1NC(=O)CSc1oc(-c2cccs2)nc1S(=O)(=O)c1ccc(Br)cc1 | inactive: 2.77% |
| Cc1cc(C)cc(OC(=O)c2snnc2C)c1 | inactive: -15.9% |
| O=C(Cc1ccccc1)Nc1sc2c(c1C(=O)Nc1ccc(Cl)cc1)CCCC2 | inactive: -18.8% |
| O=C(NCCc1csc(-c2cccc(F)c2)n1)c1cccs1 | inactive: 0.536% |
| Cc1cccc(NC(=O)CSc2nc3c([nH]c4ccccc43)c(=O)n2C)c1C | inactive: 16.9% |
| N#C/C(=C\c1ccc(Cl)cc1)c1nc2ccccc2[nH]1 | inactive: 18.5% |
| O=C(NC1CCN(Cc2ccccc2)CC1)c1ccc(Cn2c(=O)c3ccccc3n(Cc3ccccc3)c2=O)cc1 | inactive: 5.79% |
| Cc1ccc(-c2nc(-c3cc4cccc(OCc5cccc(C)c5)c4oc3=O)no2)cc1 | inactive: -2.52% |
| CCOC(=O)c1ccc(NC(=O)c2ncn(-c3ccccc3)n2)cc1 | inactive: 0.134% |

| Structure (SMILES) | activity change, negative = cytotoxicity |
| --- | --- |
| COc1ccc(N2CCN(C(=O)CCn3c(=O)c4cccn4c4cccnc43)CC2)cc1 | inactive: 7.62% |
| CC(NC(=O)Nc1cc(Cl)ccc1Cl)c1c(-n2cccc2)sc2c1CCCC2 (stereo not drawn) | inactive: -5.11% |
| CCN(CC)c1ccc(C(=O)N2CCC(c3c[nH]c4ccccc34)(c3c[nH]c4ccccc34)CC2)cc1 | inactive: -4.69% |
| Cc1ccc(CNC(=O)c2ccc(-n3cnc4cccnc43)cc2)cc1 | inactive: -4.19% |
| CCc1ccc(NC(=O)Cn2c3ncccc3c(=O)n2-c2ccc(C)c(C)c2)cc1 | inactive: 2.73% |
| Cc1ccc(NC(=O)/C(C#N)=C/c2cc(C)n(-c3ccc(F)cc3)c2C)cc1C | inactive: 16.4% |
| O=C(c1ccc2c(c1)N(Cc1ccccc1F)C(=O)c1ccccc1S2=O)N1CCN(c2ccccc2)CC1 (stereo not drawn) | inactive: 6.06% |
| CCc1c(C)nc2nncn2c1Nc1ccc(C(C)C)cc1 | inactive: -6.59% |
| COc1cc(Nc2nc3ccccc3c3nnc(C)n23)cc(OC)c1 | inactive: 4.85% |
| CCCCN1CCCc2cc(CN(CCCN3CCOCC3)C(=O)Nc3ccc(OCC)cc3)ccc21 | inactive: -13.3% |
| COc1ccc(C)cc1Nc1c2c(nc3nc(-c4cccs4)nn13)CCCC2 | inactive: -5.19% |
| COc1cccc(CN2CCc3nc(SCC(=O)Nc4ccccc4)[nH]c(=O)c3C2)c1 | inactive: 7.82% |
| Cc1ccccc1NS(=O)(=O)c1nnc(NC(=O)c2ccccc2C)s1 | inactive: -8.04% |
| O=S(=O)(NCCS(=O)(=O)N1CCN(c2ccccc2F)CC1)c1ccc(Cl)cc1 | inactive: 17.9% |
| Cc1ccc(NC(=O)N2CCc3cc(S(=O)(=O)N4CCC(C)CC4)ccc32)cc1C | inactive: -3.1% |
| CCOC(=O)c1ccc(Nc2ncnc3c2cnn3-c2cccc(Cl)c2)cc1 | inactive: 4.64% |
| CCN(C(=O)c1cc2c(s1)-c1ccccc1OC2)c1cc(Cl)ccc1OC | inactive: -25% |
| Cc1ccccc1-c1nc(CS(=O)(=O)CC(=O)NCc2cccc(Cl)c2)c(C)o1 | inactive: 25.3% |
| Cc1ccc(N2CC(C(=O)Nc3ccc(Br)cc3)CC2=O)cc1 (stereo not drawn) | inactive: -12.5% |
| COc1ccc(-n2ncc3c(NCCC4=CCCCC4)ncnc32)cc1 | inactive: -0.365% |
| C=Cc1ccc(CN2C(=O)N(c3cccc(Cl)c3)S(=O)(=O)c3ccccc32)cc1 | inactive: 6.42% |

| Structure (SMILES) | activity change, negative = cytotoxicity |
| --- | --- |
| COc1ccc(C(=O)n2nc(-c3ccco3)nc2NCc2cccs2)cc1 | inactive: -1.48% |
| COc1ccccc1C(=O)NCCn1cc(SCc2ccccc2Cl)c2ccccc21 | inactive: 22.9% |
| COc1ccccc1C(=O)Nc1nc(-c2ccccc2)ns1 | inactive: 7.23% |
| CCc1ccc(-c2nn(CC(=O)NC3CCCC3)c3c2cnc2ccc(F)cc23)cc1 | inactive: 17.7% |
| COC(=O)c1ccccc1NC(=O)Cn1nnc2sc(-c3ccccc3)cc2c1=O | inactive: -0.432% |
| CCOc1ccccc1NC(=O)NCCn1c(=O)oc2ccc(C)cc21 | inactive: 4.83% |
| COc1ccccc1CNS(=O)(=O)c1cc2c3c(c1)CCN3C(=O)CC2 | inactive: 3.12% |
| COc1ccc(-c2nc(-c3ccccc3)c(-c3ccc(O)cc3)[nH]2)cc1 | inactive: -14.2% |
| COc1ccc(OC)c(CNC(=O)CCn2c(=O)c3cccn3c3ccc(F)cc32)c1 | inactive: 3.99% |
| O=C(/C=C/c1ccc(F)cc1)Nc1nc2n(n1)C(c1ccc(Cl)cc1)C=C(c1ccccc1)N2 (stereo not drawn) | inactive: -6.05% |
| COc1ccc(Cn2c(C(=O)O)c(CNC3CCCCCC3)c3ccc(OC)cc32)cc1 | inactive: 3.1% |
| Cc1cc(C)n(-c2nc3ccccc3nc2Nc2cc(C(=O)O)ccc2C)n1 | inactive: 10% |
| Cc1ccc(CN2CCN(CC(=O)NCc3ccccc3Cl)C2=O)cc1 | inactive: 2.95% |
| Cc1cc(C)cc(-n2nnc(-c3nc(-c4ccccc4F)no3)c2C)c1 | inactive: -2.04% |
| COc1cc(NS(=O)(=O)c2ccc3c(c2)CCCN3C(C)=O)cc(OC)c1OC | inactive: -17.9% |
| COc1cccc(-c2cc(C(=O)Nc3ccc(C)cc3)[nH]n2)c1 | inactive: 1.31% |
| COc1ccc(C(=O)N2CCc3cc(OC)c(OC)cc3C2COc2ccc3c(C)cc(=O)oc3c2)c(OC)c1 (stereo not drawn) | inactive: -5.5% |
| CCOc1ccc(C(=O)N2CCCCC2CCN2CCOCC2)cc1 (stereo not drawn) | inactive: 5.98% |
| COc1ccc(NC(=O)c2sc3nc(C)c(C(=O)Nc4ccc(Cl)cc4)c(-c4ccc(Br)cc4)c3c2N)cc1 | inactive: -21.3% |
| Cc1ccc(NC(=O)C(=O)NCC(c2cccnc2)N2CCc3ccccc32)cc1Cl (stereo not drawn) | inactive: -29.8% |
| CCOc1ccccc1NC(=O)CN1C(=O)C2(SCC(=O)N2c2cccc(F)c2)c2ccccc21 (stereo not drawn) | inactive: -2.99% |
